We go through 25 compounds from ChEMBL document CHEMBL5606458, “ASAP - ZIKV NS2B-NS3 protease fluorescence single point” (2024).

The assay has as its target Nonstructural protein 3 (Zika virus) (UniProt A0A024AXB9).
The mark [1] stands for this setting: PRVABC59, Concentration 15.0 uM, Number of replicates 1.0.
[2] abbreviates: PRVABC59, Concentration 50.0 uM, Number of replicates 1.0.

The campaign covered roughly 2,700 compounds. About 160 (5.9%) showed an effect of 50% or more. The list shows a part of the results.

UniProt A0A024AXB9, sequence (A0A024AXB9 as listed by the source): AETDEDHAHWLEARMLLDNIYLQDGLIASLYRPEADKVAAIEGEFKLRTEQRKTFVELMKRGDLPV

The inhibition is the relative decrease from the control value, in per cent. Consider `CC(=O)N[C@@H](Cc1cnc[nH]1)C(=O)Nc1cccc2cccnc12`, for which the inhibition is 11.4% (PRVABC59, Concentration 49.95 uM, Number of replicates 2.0, Standard deviation 1.898018247954012 %) and 46.9% (PRVABC59, Concentration 99.9 uM, Number of replicates 2.0, Standard deviation 0.2720515008168473 %).
For the compound `COc1cccc2c1OC[C@@H](NC(=O)c1cc(Cl)ccc1NS(=O)(=O)c1ccc(Oc3ccccc3Cl)cc1)C2`, under setting [1], the inhibition amounted to 25.4%.
For `Cc1cnccc1NC(=O)c1nc(C2CC2)n(C)n1`, the inhibition (PRVABC59, Concentration 49.5 uM, Number of replicates 2.0, Standard deviation 4.720574485290029 %) was 2.91%; the inhibition (PRVABC59, Concentration 99.01 uM, Number of replicates 2.0, Standard deviation 0.6899133958050134 %) was 2.1%; the inhibition (PRVABC59, Concentration 198.0 uM, Number of replicates 2.0, Standard deviation 2.5180749032014678 %) was 1.77%.
On to `Cc1cc(CO)c2cccc(CC(=O)N(c3ncccn3)S(=O)(=O)c3ccc(N)cc3)c2n1`, for which the inhibition is, setting by setting: (PRVABC59, Concentration 49.95 uM, Number of replicates 2.0, Standard deviation 0.08143445481880901 %) 93.4%; (PRVABC59, Concentration 99.9 uM, Number of replicates 2.0, Standard deviation 0.09670172922339526 %) 93.5%.
For `CN(C(=O)C1CCN(c2ccc(C=O)cc2)CC1)C1CCN(C(=O)OC(C)(C)C)CC1`, the inhibition under setting [2] worked out at 20.8%.
Turning to `Cc1cc(CO)c2cccc(Nc3cc(C)on3)c2n1`, the inhibition (PRVABC59, Concentration 49.95 uM, Number of replicates 2.0, Standard deviation 0.1664787029188791 %) was -8.71%.
As to `CN(C)S(=O)(=O)[C@H]1C[C@H](NC(=O)c2cccc3c2NC(=O)[C@]2(CCCN2)C3)C1`, the inhibition is, setting by setting: (PRVABC59, Concentration 49.5 uM, Number of replicates 2.0, Standard deviation 0.8522804207705638 %) 5.3%; (PRVABC59, Concentration 99.01 uM, Number of replicates 2.0, Standard deviation 1.1504282386609923 %) 10.8%; (PRVABC59, Concentration 198.0 uM, Number of replicates 2.0, Standard deviation 0.957686991498005 %) 18.8%.
As to `O=C(NCCSc1ccc(Cl)cc1)c1cc(Cl)ccc1NS(=O)(=O)c1ccc(Oc2ccccc2Cl)cc1`, the inhibition under setting [1] was 21.4%.
Take `O=C(c1csc([C@H]2CCCNC2)n1)N1CC[C@H](c2cccnc2)C1`: the inhibition is 2% (PRVABC59, Concentration 49.5 uM, Number of replicates 2.0, Standard deviation 1.6167440894523137 %); 4.03% (PRVABC59, Concentration 99.01 uM, Number of replicates 2.0, Standard deviation 1.2591585098620028 %); 5.76% (PRVABC59, Concentration 198.0 uM, Number of replicates 2.0, Standard deviation 1.4778944158999632 %).
For the compound `CN1CCN(C2CCN(C(=O)C3CCN(c4ccc(C=O)cc4)CC3)CC2)CC1`, the inhibition under setting [2] is 19.7%.
With `O=Cc1ccc(N2CCC(C(=O)NCCn3ncc4ccccc4c3=O)CC2)cc1`, the inhibition under setting [2] is 28.1%.
On to `COc1ccc(S(=O)(=O)N2CCC(C(=O)Nc3nccs3)CC2)cc1`, for which the inhibition is -0.135% (PRVABC59, Concentration 49.5 uM, Number of replicates 2.0, Standard deviation 1.3012511996725602 %); 0.038% (PRVABC59, Concentration 99.01 uM, Number of replicates 2.0, Standard deviation 2.3185363216290313 %); 1.27% (PRVABC59, Concentration 198.0 uM, Number of replicates 2.0, Standard deviation 1.855141168414174 %).
For the compound `CC(C)(C)[C@@H](NC(=O)OCc1ccccc1)C(=O)Nc1cccc(CN)c1`, the inhibition was -2.34% (PRVABC59, Concentration 49.5 uM, Number of replicates 2.0, Standard deviation 0.837580021478449 %); -2.03% (PRVABC59, Concentration 99.01 uM, Number of replicates 2.0, Standard deviation 0.5497429243140284 %); 0.262% (PRVABC59, Concentration 198.0 uM, Number of replicates 2.0, Standard deviation 0.14002884754327624 %).
Consider `O=C(c1cc(Cl)ccc1NS(=O)(=O)c1ccc(Oc2ccccc2Cl)cc1)N(Cc1ccncc1)C[C@H]1CCCO1`, for which, under setting [1], the inhibition was 20.2%.
In the case of `O=C1[C@@H]2CCCN2[C@H](c2ccc([N+](=O)[O-])cc2)N1c1ccc([N+](=O)[O-])cc1`, the inhibition was -1.98% (PRVABC59, Concentration 49.5 uM, Number of replicates 2.0, Standard deviation 5.108750921879123 %); 3.35% (PRVABC59, Concentration 99.01 uM, Number of replicates 2.0, Standard deviation 2.6075310241346523 %); 11.4% (PRVABC59, Concentration 198.0 uM, Number of replicates 2.0, Standard deviation 2.497353851624263 %).
Consider `O=C(c1cc(Cl)ccc1NS(=O)(=O)c1ccc(Oc2ccccc2Cl)cc1)N1CCc2c([nH]c3ccccc23)C1`, for which the inhibition under setting [1] was 12.6%.
In the case of `CC(=O)Nc1ccc(C(=O)N[C@@H](Cc2cccc3c(CO)cc(C)nc23)C(=O)O)cn1`, the inhibition reads like this: (PRVABC59, Concentration 49.95 uM, Number of replicates 2.0, Standard deviation 2.2029654535956653 %) -1.45%; (PRVABC59, Concentration 99.9 uM, Number of replicates 2.0, Standard deviation 1.1943182808262969 %) 4.57%.
As for `O=Cc1ccc(N2CCC(C(=O)N3CCN(CC(F)(F)F)CC3)CC2)cc1`, the inhibition under setting [2] came out at 22.2%.
On the same count and under the same terms, next, `O=Cc1ccc(N2CCC(C(=O)Nc3ccncc3I)CC2)cc1`: 22.7%.
For `O=C([C@@H]1CCCCN1C(=O)c1cc(Cl)ccc1NS(=O)(=O)c1ccc(Oc2ccccc2Cl)cc1)N1CCCC1`, the inhibition under setting [1] is 16.4%.
On the same count and under the same terms, for `O=C(Nc1nc2cc(Cl)ccc2s1)c1cc(Cl)ccc1NS(=O)(=O)c1ccc(Oc2ccccc2Cl)cc1` the value was 18.3%.
Regarding `CN(C)C(=O)N1CCN(C(=O)C2CCN(c3ccc(C=O)cc3)CC2)CC1`, under setting [2], the inhibition was found to be 19.2%.
With `Cc1nccn1-c1ccccc1CNC(=O)C1CCN(c2ccc(C=O)cc2)CC1`, under “PRVABC59, Concentration 10.0 uM, Number of replicates 1.0”, the inhibition stood at 24.9%.
Consider `CC(C)NC(=O)CN1CCN(C(=O)c2cc(Cl)ccc2NS(=O)(=O)c2ccc(Oc3ccccc3Cl)cc2)CC1`, for which the inhibition under setting [1] was -2.42%.
For the compound `CCn1ccnc(N[C@@H](Cc2c[nH]c3ccccc23)C(=O)N2CCCCC2)c1=O`, the inhibition is -0.678% (PRVABC59, Concentration 49.5 uM, Number of replicates 2.0, Standard deviation 3.438220710231146 %); 3.36% (PRVABC59, Concentration 99.01 uM, Number of replicates 2.0, Standard deviation 6.741965325379917 %); 1.74% (PRVABC59, Concentration 198.0 uM, Number of replicates 2.0, Standard deviation 3.9016173017072093 %).
